Data reported in PubChem BioAssay (Tox21).
Where “and” joins values, the source holds several entries; their conditions need not be identical. Equal values may be shown once. Inconclusive means that the source gave no clear call. Such entries were picked first, then a sample of the others. For some assays here: A potency beside an inconclusive call is a rough fit, not a confirmed value. Calls of active or inactive are those of the source. Unless noted, calls follow the shape of the dose curve; as a rule, active = well fitted curve in the direction sought with a large enough effect in the repeat runs; inconclusive = weak or mixed curves; inactive = no such curve, though single readings can be large; an effect the other way counts as inactive or inconclusive.

Key:
[1] = qHTS assay for small molecule agonists of the antioxidant response element (ARE) signaling pathway (AID 743202; active = well fitted activation curve with a large enough effect in the signal ratio in the repeat runs, not every such curve was filed as active; inconclusive = weak or mixed curves, or effect the other way; inactive = no such curve, though single readings can be large or run the other way; the % refers to the signal ratio; also: % is scaled to controls: 0 for no effect and ±100 for the full control effect); details: HepG2 ARE-bla reporter, beta-lactamase FRET, 16 h; activation: at 73.3 µM (top of the series) unless noted
Summary of the method: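 Following a 16 h, 37 C exposure of reporter HepG2 cells (ARE-driven beta-lactamase, 2,000 cells/well) to compounds, FRET substrate was applied for 2 h at room temperature and fluorescence intensity recorded.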

[2] = biological target: Retinoic acid receptor RXR-alpha (Homo sapiens) (UniProt P19793); experiment: qHTS assay to identify small molecule agonists of the RXR signaling pathway (AID 1159527; calls by dose curve; also: nearly all actives have a fitted effect of over 35% in size; also: potency is read from the fitted curve at half-maximal effect); details: HEK293T RXRa-UAS-bla, beta-lactamase ratio, 16 h; activation: at 76.8 µM (top of the series) unless noted
Summary of the method: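 Fluorescence ratio readout (460 vs 530 nm) from GeneBLAzer RXR-alpha HEK 293T cells after 16 hr compound treatment; cells seeded 5 hr beforehand in low-serum, charcoal-stripped medium.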

[3] = biological target: Estrogen receptor beta (Homo sapiens) (UniProt Q92731); experiment: qHTS assay to identify small molecule antagonists of the estrogen receptor beta (ER-beta) signaling pathway (AID 1259378; active = well fitted inhibition curve with a large enough effect in the signal ratio in the repeat runs, not every such curve was filed as active; inconclusive = weak or mixed curves, or effect the other way; inactive = no such curve, though single readings can be large or run the other way; the % refers to the signal ratio; also: % is scaled to controls: 0 for no effect and ±100 for the full control effect); details: ER-beta-UAS-bla HEK293T, beta-lactamase FRET ratio, 16 h; activity, negative = inhibition: at 92.4 µM (top of the series) unless noted
Summary of the method: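 ER-beta-UAS-bla HEK293T (GripTite) cells in 2% charcoal-stripped FBS medium were preincubated 6 hr at 37C, dosed with compound, then stimulated with 1 nM E2 (final) for 16 hr; beta-lactamase reporter read by B/G FRET fluorescence after 2 hr substrate loading.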

[4] = biological target: Cytochrome P450 2C19 (Homo sapiens) (UniProt P33261); experiment: Cytochrome P450 Family 2 Subfamily C Member 19 (CYP2C19) small molecule antagonists: luciferase reporter qHTS assay (AID 1671197); also: potency is read from the fitted curve at half-maximal effect; nearly all actives have a fitted effect of over 65% in size
Summary of the method: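 P450-Glo CYP2C19 screening system; proluciferin substrate; DMSO compound stocks; 10 min RT preincubation; NADPH regeneration, 1 h at 37C; luciferin detection reagent, 20 min RT; luminescence as RLU.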

[5] = qHTS assay to identify small molecule antagonists of the thyroid receptor (TR) signaling pathway - cell viability counter screen (AID 743064); details: GH3.TRE-Luc viability, CellTiter-Fluor, 24 h; activity change, negative = cytotoxic: at 70.3 µM (top of the series) unless noted; also: nearly all actives have a fitted effect of over 50% in size; also: potency is read from the fitted curve at half-maximal effect
Summary of the method: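 Counter screen for cytotoxicity: compound plus T3 (1 nM final) on GH3.TRE-Luc cells, 23.5 h at 37 °C, then fluorescence viability readout with CellTiter-Fluor.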

[6] = biological target: Peroxisome proliferator-activated receptor gamma (Homo sapiens) (UniProt P37231); experiment: qHTS assay to identify small molecule antagonists of the peroxisome proliferator-activated receptor gamma (PPARg) signaling pathway (AID 743191; calls by dose curve; also: % is scaled to controls: 0 for no effect and ±100 for the full control effect; nearly all actives have a fitted effect of over 30% in size); details: HEK293H PPARg-UAS-bla, beta-lactamase ratio, antagonist, 17 h; ratio activity, negative = inhibition: at 62.6 µM (top of the series) unless noted
Summary of the method: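 GeneBLAzer PPARg UAS-bla HEK293H cells carrying a UAS-driven beta-lactamase reporter were plated at 3000 cells/well, preincubated 5 h at 37C, then given compound for 17 h at 37C; LiveBLAzer B/G FRET substrate was read after 1 h at room temperature.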

[7] = biological target: Vitamin D3 receptor (Homo sapiens) (UniProt P11473); experiment: qHTS assay to identify small molecule antagonists of the vitamin D receptor (VDR) signaling pathway (AID 743223; active = well fitted inhibition curve with a large enough effect in the signal ratio in the repeat runs, not every such curve was filed as active; inconclusive = weak or mixed curves, or effect the other way; inactive = no such curve, though single readings can be large or run the other way; the % refers to the signal ratio; also: % is scaled to controls: 0 for no effect and ±100 for the full control effect); details: VDR-UAS-bla HEK293T, beta-lactamase FRET ratio, 16 h; activity change, negative = inhibition: at 61 µM (top of the series) unless noted
Summary of the method: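 Beta-lactamase activity in VDR-bla cells is measured by FRET substrate fluorescence (2 h, room temperature) after cells spend 16 h at 37C with test compound and 3 nM final 1alpha,25-dihydroxyvitamin D3.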

[8] = biological target: Cytochrome P450 2D6 (Homo sapiens) (UniProt P10635); experiment: Cytochrome P450 Family 2 Subfamily D Member 6 (CYP2D6) small molecule antagonists: luciferase reporter qHTS assay (AID 1671196); also: nearly all actives have a fitted effect of over 50% in size; also: potency is read from the fitted curve at half-maximal effect
Summary of the method: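 Room-temperature luminescent CYP2D6 activity assay: compound preincubated 10 min with enzyme–substrate mix, NADPH-initiated reaction 1 h, detection reagent 20 min before reading.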

[9] = biological target: Cytochrome P450 1A2 (Homo sapiens) (UniProt P05177); experiment: Cytochrome P450 Family 1 Subfamily A Member 2 (CYP1A2) small molecule antagonists: luciferase reporter qHTS assay (AID 1671199); also: potency is read from the fitted curve at half-maximal effect; nearly all actives have a fitted effect of over 50% in size
Summary of the method: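 Room-temperature CYP1A2 reaction with proluciferin substrate: compounds added from DMSO, 10 min preincubation, NADPH regeneration for 1 h. Luciferin detection reagent then added; luminescence recorded as RLU.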

[10] = qHTS assay to identify small molecule antagonists of the progesterone receptor (PR) signaling pathway - cell viability counter screen (AID 1346798); also: % is scaled to controls: 0 for no effect and ±100 for the full control effect; nearly all actives have a fitted effect of over 50% in size
Summary of the method: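 ATP content as viability readout: CellTiter-Glo luminescence, 30 min room temperature, in PR-UAS-bla HEK293T cells after 16 hr compound/R5020 treatment at 37C and 5% CO2.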

[11] = qHTS assay for small molecule disruptors of the mitochondrial membrane potential (AID 720635); details: HepG2 mitochondrial membrane potential, Mito-MPS dye ratio; for Potency: ratio activity, negative = MMP loss: at 83.2 µM (top of the series) unless noted; also: potency is read from the fitted curve at half-maximal effect
Summary of the method: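 HepG2 cells (2,000/well) attached overnight at 37C, then took compound for 1 hr at 37C, 5% CO2. Mito-MPS dye was added for 30 min; fluorescence was read at 490/535 nm (monomers) and 540/590 nm (aggregates).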

[12] = qHTS assay for identifying genotoxic compounds that show differential cytotoxicity against isogenic chicken DT40 cell lines with known DNA damage response pathways - Rev3 mutant cell line (AID 743014); details: chicken DT40 Rev3-/- viability, CellTiter-Glo, 40 h; activity, negative = cytotoxicity: at 68.4 µM (top of the series); also: nearly all actives have a fitted effect of over 55% in size; also: potency is read from the fitted curve at half-maximal effect
[13] = qHTS assay to identify small molecule antagonists of the peroxisome proliferator-activated receptor delta (PPARd) signaling pathway - cell viability counter screen (AID 743213); details: PPARd-bla HEK293H viability, CellTiter-Glo luminescence, 17 h; viability change, negative = cytotoxic: at 62 µM (top of the series) unless noted; also: nearly all actives have a fitted effect of over 50% in size; also: potency is read from the fitted curve at half-maximal effect
Summary of the method: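 CellTiter-Glo was added to PPARd-bla HEK293H wells following 17 h compound treatment in the presence of 300 nM L165041. Luminescence was recorded after 30 min at room temperature.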

[14] = qHTS assay to identify small molecule agonists of the farnesoid-X-receptor (FXR) signaling pathway - cell viability counter screen (AID 743218); details: FXR-bla HEK293T viability, CellTiter-Glo luminescence, 16 h; viability change, negative = cytotoxic: at 62.6 µM (top of the series); also: nearly all actives have a fitted effect of over 45% in size; also: potency is read from the fitted curve at half-maximal effect
Summary of the method: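 Quantitative HTS counter screen measuring ATP-based viability via CellTiter-Glo luminescence in HEK 293T cells carrying a UAS-driven beta-lactamase reporter, after 16 h compound exposure at 37 C.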

[15] = qHTS assay to identify small molecule antagonists of the sonic hedgehog signaling (Shh) pathway (AID 1259369; calls by dose curve; also: nearly all actives have a fitted effect of over 45% in size; also: potency is read from the fitted curve at half-maximal effect)
Summary of the method: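 Read-out is luminescence from a firefly luciferase gene controlled by the Gli1 response element, in 3T3Gli1-Luc cells pre-incubated 4hr then exposed to compounds and conditioned medium for 24hr.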

[16] = biological target: Cytochrome P450 2C9 (Homo sapiens) (UniProt P11712); experiment: Cytochrome P450 Family 2 Subfamily C Member 9 (CYP2C9) small molecule antagonists: luciferase reporter qHTS assay (AID 1671198)
Summary of the method: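 CYP2C9 activity was measured with a P450-Glo proluciferin substrate. Enzyme–substrate mix was held with compound for 10 min at room temperature, then NADPH regeneration solution was added for 1 h at 37C. Luciferin product was read as luminescence.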

[17] = biological target: Glucocorticoid receptor (Homo sapiens) (UniProt P04150); experiment: qHTS assay to identify small molecule antagonists of the glucocorticoid receptor (GR) signaling pathway (AID 720692; active = well fitted inhibition curve with a large enough effect in the signal ratio in the repeat runs, not every such curve was filed as active; inconclusive = weak or mixed curves, or effect the other way; inactive = no such curve, though single readings can be large or run the other way; the % refers to the signal ratio; also: % is scaled to controls: 0 for no effect and ±100 for the full control effect); details: GR-bla HeLa, beta-lactamase FRET ratio, dexamethasone-stimulated, 18 h; activity change, negative = inhibition: at 58.5 µM (top of the series) unless noted
Summary of the method: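 In a 1536-well cell format, compounds were added 4 h after seeding GR-bla HeLa cells, together with dexamethasone at 5 nM final; reporter activity was measured by FRET-substrate fluorescence following 18 h at 37 C.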
Tags tell the direction and shape of the fitted curve or compound fluorescence and quenching.

Sequence of UniProt P19793 (P19793 whole entry, looked up): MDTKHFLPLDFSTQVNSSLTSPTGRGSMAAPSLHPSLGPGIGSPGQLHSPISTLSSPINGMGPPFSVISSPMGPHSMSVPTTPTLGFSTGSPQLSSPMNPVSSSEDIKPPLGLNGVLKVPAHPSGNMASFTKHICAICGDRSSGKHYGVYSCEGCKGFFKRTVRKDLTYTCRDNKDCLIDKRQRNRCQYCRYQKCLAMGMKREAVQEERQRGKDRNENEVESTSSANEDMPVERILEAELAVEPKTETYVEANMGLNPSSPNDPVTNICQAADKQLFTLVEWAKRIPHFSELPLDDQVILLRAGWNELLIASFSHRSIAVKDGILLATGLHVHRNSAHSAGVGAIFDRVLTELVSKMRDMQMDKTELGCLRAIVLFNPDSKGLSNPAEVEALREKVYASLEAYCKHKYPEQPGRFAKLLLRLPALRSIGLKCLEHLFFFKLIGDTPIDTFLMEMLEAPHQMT
Sequence of UniProt P10635 (P10635 whole entry, looked up): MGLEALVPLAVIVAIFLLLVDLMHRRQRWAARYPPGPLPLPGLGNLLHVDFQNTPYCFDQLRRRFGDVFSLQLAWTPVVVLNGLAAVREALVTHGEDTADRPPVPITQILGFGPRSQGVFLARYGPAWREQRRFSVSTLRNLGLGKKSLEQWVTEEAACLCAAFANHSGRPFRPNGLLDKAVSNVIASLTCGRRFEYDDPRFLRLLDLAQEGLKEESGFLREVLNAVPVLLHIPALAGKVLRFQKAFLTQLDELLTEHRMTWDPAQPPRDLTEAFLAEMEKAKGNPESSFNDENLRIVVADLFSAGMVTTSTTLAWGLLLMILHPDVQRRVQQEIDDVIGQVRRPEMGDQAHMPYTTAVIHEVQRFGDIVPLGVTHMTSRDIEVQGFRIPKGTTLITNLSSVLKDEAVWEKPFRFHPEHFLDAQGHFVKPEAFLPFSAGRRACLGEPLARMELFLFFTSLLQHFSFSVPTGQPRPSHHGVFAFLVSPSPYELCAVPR
Sequence of UniProt P37231 (P37231 whole entry, looked up): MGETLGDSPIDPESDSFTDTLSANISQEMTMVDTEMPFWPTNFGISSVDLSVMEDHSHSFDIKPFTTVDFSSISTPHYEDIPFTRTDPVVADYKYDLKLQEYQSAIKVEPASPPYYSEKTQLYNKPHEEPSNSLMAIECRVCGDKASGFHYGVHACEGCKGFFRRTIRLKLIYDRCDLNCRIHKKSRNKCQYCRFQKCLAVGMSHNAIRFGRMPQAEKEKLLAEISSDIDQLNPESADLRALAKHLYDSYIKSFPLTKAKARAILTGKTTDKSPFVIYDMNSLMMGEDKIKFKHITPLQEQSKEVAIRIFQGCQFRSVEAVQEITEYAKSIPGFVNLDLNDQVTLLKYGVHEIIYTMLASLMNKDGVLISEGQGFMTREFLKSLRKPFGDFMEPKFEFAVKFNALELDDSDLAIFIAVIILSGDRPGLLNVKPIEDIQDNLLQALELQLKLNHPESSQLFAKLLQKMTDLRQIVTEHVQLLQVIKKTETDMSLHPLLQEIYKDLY
Sequence of UniProt P05177 (P05177 whole entry, looked up): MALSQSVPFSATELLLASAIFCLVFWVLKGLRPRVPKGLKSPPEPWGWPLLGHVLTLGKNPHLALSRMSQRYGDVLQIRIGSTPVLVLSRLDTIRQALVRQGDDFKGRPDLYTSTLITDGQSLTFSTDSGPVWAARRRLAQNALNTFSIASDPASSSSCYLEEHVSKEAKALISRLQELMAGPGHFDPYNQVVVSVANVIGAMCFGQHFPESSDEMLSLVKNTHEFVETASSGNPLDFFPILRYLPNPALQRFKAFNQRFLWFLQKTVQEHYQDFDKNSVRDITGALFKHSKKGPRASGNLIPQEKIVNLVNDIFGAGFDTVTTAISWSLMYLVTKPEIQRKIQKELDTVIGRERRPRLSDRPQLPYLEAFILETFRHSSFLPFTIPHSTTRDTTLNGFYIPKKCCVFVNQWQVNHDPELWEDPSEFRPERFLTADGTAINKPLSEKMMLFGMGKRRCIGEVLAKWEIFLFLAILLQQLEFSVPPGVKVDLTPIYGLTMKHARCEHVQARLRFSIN
Sequence of UniProt P33261 (P33261 whole entry, looked up): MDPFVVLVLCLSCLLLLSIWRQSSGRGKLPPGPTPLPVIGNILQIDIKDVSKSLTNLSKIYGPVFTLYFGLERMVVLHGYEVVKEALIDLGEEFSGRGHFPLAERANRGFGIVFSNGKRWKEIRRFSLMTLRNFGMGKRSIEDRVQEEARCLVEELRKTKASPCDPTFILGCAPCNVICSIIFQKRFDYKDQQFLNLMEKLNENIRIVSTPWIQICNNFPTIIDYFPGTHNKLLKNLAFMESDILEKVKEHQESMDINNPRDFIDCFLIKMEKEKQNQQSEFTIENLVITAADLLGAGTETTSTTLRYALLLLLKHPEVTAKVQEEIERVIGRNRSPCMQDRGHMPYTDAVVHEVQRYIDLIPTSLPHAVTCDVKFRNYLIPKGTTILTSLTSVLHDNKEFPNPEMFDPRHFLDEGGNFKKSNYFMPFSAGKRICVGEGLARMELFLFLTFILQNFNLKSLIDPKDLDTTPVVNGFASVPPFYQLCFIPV
Sequence of UniProt P11712 (P11712 whole entry, looked up): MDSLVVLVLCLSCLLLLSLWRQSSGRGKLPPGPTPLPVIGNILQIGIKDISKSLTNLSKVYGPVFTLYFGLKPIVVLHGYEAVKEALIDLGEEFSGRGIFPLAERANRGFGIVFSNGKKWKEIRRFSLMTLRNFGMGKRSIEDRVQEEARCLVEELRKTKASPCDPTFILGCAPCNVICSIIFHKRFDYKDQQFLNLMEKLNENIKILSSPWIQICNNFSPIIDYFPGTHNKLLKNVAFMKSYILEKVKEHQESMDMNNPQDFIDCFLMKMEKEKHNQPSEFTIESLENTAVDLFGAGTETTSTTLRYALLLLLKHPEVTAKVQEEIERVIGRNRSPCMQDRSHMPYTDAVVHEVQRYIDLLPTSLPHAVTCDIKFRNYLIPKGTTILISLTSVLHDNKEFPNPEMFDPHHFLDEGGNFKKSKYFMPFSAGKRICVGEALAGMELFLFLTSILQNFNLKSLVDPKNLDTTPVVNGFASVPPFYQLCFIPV
Sequence of UniProt P04150 (P04150 whole entry, looked up): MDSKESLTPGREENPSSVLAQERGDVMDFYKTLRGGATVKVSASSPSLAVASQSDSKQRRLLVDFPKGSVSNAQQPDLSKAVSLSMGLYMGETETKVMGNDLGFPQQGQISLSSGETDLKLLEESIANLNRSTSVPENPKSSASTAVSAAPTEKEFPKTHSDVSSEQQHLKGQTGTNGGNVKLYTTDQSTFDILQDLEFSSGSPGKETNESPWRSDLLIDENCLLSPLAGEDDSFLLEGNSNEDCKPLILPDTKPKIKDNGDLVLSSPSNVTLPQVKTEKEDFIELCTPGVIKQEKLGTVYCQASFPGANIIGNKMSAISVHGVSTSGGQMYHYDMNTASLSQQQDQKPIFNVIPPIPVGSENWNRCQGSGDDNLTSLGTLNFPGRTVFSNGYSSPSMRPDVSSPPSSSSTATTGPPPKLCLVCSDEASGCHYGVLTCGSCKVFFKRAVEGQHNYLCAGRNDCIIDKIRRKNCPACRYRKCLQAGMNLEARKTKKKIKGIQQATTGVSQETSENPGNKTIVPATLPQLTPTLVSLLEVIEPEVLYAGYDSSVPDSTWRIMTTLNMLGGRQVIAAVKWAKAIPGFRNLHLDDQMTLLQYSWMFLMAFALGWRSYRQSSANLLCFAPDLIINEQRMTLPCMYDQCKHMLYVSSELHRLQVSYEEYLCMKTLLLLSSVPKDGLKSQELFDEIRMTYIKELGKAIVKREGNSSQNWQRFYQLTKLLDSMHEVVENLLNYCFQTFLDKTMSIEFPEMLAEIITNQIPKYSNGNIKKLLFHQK
Sequence of UniProt Q92731 (Q92731 whole entry, looked up): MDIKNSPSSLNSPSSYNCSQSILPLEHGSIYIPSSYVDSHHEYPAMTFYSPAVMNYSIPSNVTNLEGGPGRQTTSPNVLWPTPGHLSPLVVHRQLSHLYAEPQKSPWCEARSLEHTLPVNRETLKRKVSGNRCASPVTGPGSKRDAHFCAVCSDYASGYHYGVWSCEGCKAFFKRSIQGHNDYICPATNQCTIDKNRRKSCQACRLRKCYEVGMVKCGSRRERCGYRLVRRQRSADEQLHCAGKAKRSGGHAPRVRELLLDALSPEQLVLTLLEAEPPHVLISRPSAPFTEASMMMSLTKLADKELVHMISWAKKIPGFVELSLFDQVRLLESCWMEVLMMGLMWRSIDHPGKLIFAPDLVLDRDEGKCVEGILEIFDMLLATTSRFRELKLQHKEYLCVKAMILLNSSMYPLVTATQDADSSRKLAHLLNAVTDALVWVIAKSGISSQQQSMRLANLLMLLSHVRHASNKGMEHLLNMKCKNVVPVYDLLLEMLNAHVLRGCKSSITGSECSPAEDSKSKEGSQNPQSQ
Sequence of UniProt P11473 (P11473 whole entry, looked up): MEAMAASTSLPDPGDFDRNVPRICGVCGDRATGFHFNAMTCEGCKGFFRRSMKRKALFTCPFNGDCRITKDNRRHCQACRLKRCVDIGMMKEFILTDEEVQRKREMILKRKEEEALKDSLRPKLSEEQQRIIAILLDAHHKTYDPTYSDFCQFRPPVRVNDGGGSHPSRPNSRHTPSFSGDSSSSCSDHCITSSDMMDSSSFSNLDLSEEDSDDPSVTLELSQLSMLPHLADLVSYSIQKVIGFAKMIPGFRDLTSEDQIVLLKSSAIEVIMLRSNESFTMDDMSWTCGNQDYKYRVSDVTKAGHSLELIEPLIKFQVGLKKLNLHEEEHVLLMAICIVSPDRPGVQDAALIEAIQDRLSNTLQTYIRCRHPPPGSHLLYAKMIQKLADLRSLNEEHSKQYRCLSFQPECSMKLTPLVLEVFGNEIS

O=P(O)(Oc1ccccc1)Oc1ccccc1
Potency [1]: inactive | Potency [2]: inactive | Potency [3]: inactive | Potency [4]: inconclusive: 71 µM [inhibitor, single point]

Cc1cccc(C#N)c1
Potency [5]: inactive | ratio activity, negative = inhibition [6]: inconclusive: 0.415% | Potency [1]: inactive | activity change, negative = inhibition [7]: inconclusive: 24.1% | Potency [2]: inactive | Potency [8]: inactive | Potency [9]: inconclusive: 62.9 µM [inhibitor, partial curve]

CSC(C)(C)/C=N/O
ratio activity, negative = inhibition [6]: inconclusive: 7.78% | activation [1]: inconclusive: -13.9% | activation [2]: inconclusive: 7.73% | Potency [10]: inactive | Potency [4]: inconclusive: 89.4 µM [inhibitor, single point]

CCCC[n+]1ccccc1C
ratio activity, negative = MMP loss ([11]; at 83.2 µM (top of the series)): inactive: 18.5% and inconclusive: 7.03% | ratio activity, negative = MMP loss ([11]; at 95.3 µM (top of the series)): inconclusive: 1% and inconclusive: 30.9% | Potency [11]: inconclusive: 7.8 µM [activator, partial curve, poor fit] and inconclusive: 974 nM [activator, single point] | Potency [12]: inactive | Potency [5]: inconclusive: 2.74 µM [rising, single point] | viability change, negative = cytotoxic [13]: inconclusive: -32.2% [cytotoxic] [at 80.4 µM] | Potency [14]: inconclusive: 0.0693 µM [rising, full curve, poor fit] | Potency [2]: inactive | Potency [15]: inactive | Potency [8]: inconclusive: 63.4 µM [inhibitor] [middle of 4 runs] | Potency [9]: inconclusive: 63.4 µM [inhibitor, partial curve]

CC(C)Nc1nc(Cl)nc(NC(C)C)n1
Potency [5]: inconclusive: 0.108 µM [rising, full curve, poor fit] | ratio activity, negative = inhibition [6]: inconclusive: 17.6% | Potency [2]: inconclusive: 13.8 µM [activator, full curve] | Potency [15]: inconclusive: 1.72 µM [inhibitor, full curve] | Potency [8]: inconclusive: 79.5 µM [inhibitor, partial curve, poor fit] | Potency [16]: inconclusive: 89.4 µM [inhibitor, single point]

Cl
Potency [14]: inactive | Potency [2]: inconclusive: 49 µM [activator, partial curve]

C=CC=O
ratio activity, negative = inhibition [6]: inconclusive: 25.1% [at 81.1 µM] | Potency [13]: inconclusive: 0.0112 µM [cytotoxic, full curve, poor fit] | Potency [2]: inactive | Potency [15]: inactive

O=C(NC(=O)c1c(F)cccc1F)Nc1cc(Cl)c(F)c(Cl)c1F
Potency [11]: inconclusive: 9.45 µM [rising, partial curve, poor fit] | activity change, negative = inhibition [17]: inconclusive: 25.5% | Potency [12]: inconclusive: 7.51 µM [cytotoxic, partial curve] | ratio activity, negative = inhibition [6]: inconclusive: 5.58% | activation [1]: inconclusive: 19.3% | Potency [2]: inactive | Potency [15]: inconclusive: 47.4 µM [inhibitor, partial curve] | Potency [16]: inconclusive: 30.9 µM [inhibitor, partial curve]
